Experiment [1] deals with T1, cylindromatosis (CYLD), full-length (UniProt Q9NQC7).
T1 sequence: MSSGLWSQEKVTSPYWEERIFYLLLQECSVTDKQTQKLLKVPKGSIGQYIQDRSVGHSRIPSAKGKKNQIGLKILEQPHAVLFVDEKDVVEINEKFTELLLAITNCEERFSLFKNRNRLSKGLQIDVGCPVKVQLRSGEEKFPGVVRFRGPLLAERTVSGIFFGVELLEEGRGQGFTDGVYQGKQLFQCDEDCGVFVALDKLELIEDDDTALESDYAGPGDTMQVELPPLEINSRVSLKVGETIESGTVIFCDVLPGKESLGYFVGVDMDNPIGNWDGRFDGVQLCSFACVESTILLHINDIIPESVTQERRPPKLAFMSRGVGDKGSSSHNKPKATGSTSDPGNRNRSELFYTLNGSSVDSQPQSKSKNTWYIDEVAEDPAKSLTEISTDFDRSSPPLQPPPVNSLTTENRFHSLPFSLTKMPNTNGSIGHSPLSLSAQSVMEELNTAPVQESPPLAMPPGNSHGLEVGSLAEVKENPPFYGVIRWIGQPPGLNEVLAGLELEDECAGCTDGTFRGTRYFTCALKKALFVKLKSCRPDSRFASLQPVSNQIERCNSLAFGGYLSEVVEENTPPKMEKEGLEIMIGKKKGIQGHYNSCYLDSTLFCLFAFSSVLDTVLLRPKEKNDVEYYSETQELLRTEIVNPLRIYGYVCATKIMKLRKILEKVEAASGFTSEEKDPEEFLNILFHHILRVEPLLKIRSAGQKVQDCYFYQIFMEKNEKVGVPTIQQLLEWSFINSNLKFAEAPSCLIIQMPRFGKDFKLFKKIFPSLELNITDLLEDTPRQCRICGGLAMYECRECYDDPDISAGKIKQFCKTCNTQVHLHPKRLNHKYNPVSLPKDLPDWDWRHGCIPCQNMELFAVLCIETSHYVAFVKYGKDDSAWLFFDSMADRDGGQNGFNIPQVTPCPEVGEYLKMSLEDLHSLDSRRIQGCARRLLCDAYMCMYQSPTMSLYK
The experiment in a line: pull-down; GST pull-down from lysates of co-transfected HEK293T cells; lysates incubated with glutathione-sepharose 4B beads at 4 °C overnight; GST-tagged CYLD as bait; precipitates immunoblotted with anti-Flag, anti-GFP and anti-GST antibodies. A general note: A western blot detects proteins with antibodies after separation by electrophoresis.

A further experiment concerns the target GST-CYLD (1-555) (UniProt Q9NQC7). Kind of experiment: native gel or EMSA; lysates of transfected HEK293T cells on 10% native PAGE at 4 °C, then denatured, transferred and blotted with anti-GST antibody; endogenous CYLD present.

The results in this text go back to publication PMC5584213.

No constants are given. Whether binding was seen depends on the method and setting. For some assays here: Binding seen in cells or lysates may run through a third protein. Some entries that bind do so weakly or less than the wild type. Tags and fused reporters may be left off the sequences shown.

B1: GFP-CYLD (556-953) (domain or fragment, UniProt Q9NQC7-2 556-953)
chain: NSLAFGGYLSEVVEENTPPKMEKEGLEIMIGKKKGIQGHYNSCYLDSTLFCLFAFSSVLDTVLLRPKEKNDVEYYSETQELLRTEIVNPLRIYGYVCATKIMKLRKILEKVEAASGFTSEEKDPEEFLNILFHHILRVEPLLKIRSAGQKVQDCYFYQIFMEKNEKVGVPTIQQLLEWSFINSNLKFAEAPSCLIIQMPRFGKDFKLFKKIFPSLELNITDLLEDTPRQCRICGGLAMYECRECYDDPDISAGKIKQFCKTCNTQVHLHPKRLNHKYNPVSLPKDLPDWDWRHGCIPCQNMELFAVLCIETSHYVAFVKYGKDDSAWLFFDSMADRDGGQNGFNIPQVTPCPEVGEYLKMSLEDLHSLDSRRIQGCARRLLCDAYMCMYQSPTMSLYK
As for B1, the binding entry in experiment [1] is “binds”.

B2: cylindromatosis (CYLD), full-length (enzyme, UniProt Q9NQC7-2 1-953)
chain: T1 sequence
As for B2, the binding result in experiment [1] is listed as “binds”.

B3: GFP-CYLD (1-555) (domain or fragment, UniProt Q9NQC7-2 1-555)
chain: MSSGLWSQEKVTSPYWEERIFYLLLQECSVTDKQTQKLLKVPKGSIGQYIQDRSVGHSRIPSAKGKKNQIGLKILEQPHAVLFVDEKDVVEINEKFTELLLAITNCEERFSLFKNRNRLSKGLQIDVGCPVKVQLRSGEEKFPGVVRFRGPLLAERTVSGIFFGVELLEEGRGQGFTDGVYQGKQLFQCDEDCGVFVALDKLELIEDDDTALESDYAGPGDTMQVELPPLEINSRVSLKVGETIESGTVIFCDVLPGKESLGYFVGVDMDNPIGNWDGRFDGVQLCSFACVESTILLHINDIIPESVTQERRPPKLAFMSRGVGDKGSSSHNKPKATGSTSDPGNRNRSELFYTLNGSSVDSQPQSKSKNTWYIDEVAEDPAKSLTEISTDFDRSSPPLQPPPVNSLTTENRFHSLPFSLTKMPNTNGSIGHSPLSLSAQSVMEELNTAPVQESPPLAMPPGNSHGLEVGSLAEVKENPPFYGVIRWIGQPPGLNEVLAGLELEDECAGCTDGTFRGTRYFTCALKKALFVKLKSCRPDSRFASLQPVSNQIERC
Consider B3, for which the binding result in experiment [1] is recorded as “no binding”.

B4: GST-CYLD (1-555) (domain or fragment, UniProt Q9NQC7-2 1-555)
chain: B3 chain
In the case of B4, the binding entry with GST-CYLD (1-555) is listed as “no binding”.

B5: GFP-CYLD^ΔB-box (Δ786-837) (enzyme, UniProt Q9NQC7-2)
chain: MSSGLWSQEKVTSPYWEERIFYLLLQECSVTDKQTQKLLKVPKGSIGQYIQDRSVGHSRIPSAKGKKNQIGLKILEQPHAVLFVDEKDVVEINEKFTELLLAITNCEERFSLFKNRNRLSKGLQIDVGCPVKVQLRSGEEKFPGVVRFRGPLLAERTVSGIFFGVELLEEGRGQGFTDGVYQGKQLFQCDEDCGVFVALDKLELIEDDDTALESDYAGPGDTMQVELPPLEINSRVSLKVGETIESGTVIFCDVLPGKESLGYFVGVDMDNPIGNWDGRFDGVQLCSFACVESTILLHINDIIPESVTQERRPPKLAFMSRGVGDKGSSSHNKPKATGSTSDPGNRNRSELFYTLNGSSVDSQPQSKSKNTWYIDEVAEDPAKSLTEISTDFDRSSPPLQPPPVNSLTTENRFHSLPFSLTKMPNTNGSIGHSPLSLSAQSVMEELNTAPVQESPPLAMPPGNSHGLEVGSLAEVKENPPFYGVIRWIGQPPGLNEVLAGLELEDECAGCTDGTFRGTRYFTCALKKALFVKLKSCRPDSRFASLQPVSNQIERCNSLAFGGYLSEVVEENTPPKMEKEGLEIMIGKKKGIQGHYNSCYLDSTLFCLFAFSSVLDTVLLRPKEKNDVEYYSETQELLRTEIVNPLRIYGYVCATKIMKLRKILEKVEAASGFTSEEKDPEEFLNILFHHILRVEPLLKIRSAGQKVQDCYFYQIFMEKNEKVGVPTIQQLLEWSFINSNLKFAEAPSCLIIQMPRFGKDFKLFKKIFPSLELNITDLLEDTPRQCPKDLPDWDWRHGCIPCQNMELFAVLCIETSHYVAFVKYGKDDSAWLFFDSMADRDGGQNGFNIPQVTPCPEVGEYLKMSLEDLHSLDSRRIQGCARRLLCDAYMCMYQSPTMSLYK
In the case of B5, the binding entry in experiment [1] is reported as “no binding”.
